Where “and” joins values, the source holds several entries; their conditions need not be identical. Equal entries are not always repeated. Among all 350,000 compounds or so, about 700 (0.2%) were called active. Calls follow the shape of the dose curve; as a rule, active = well fitted inhibition curve with a large enough effect; inconclusive = small, poorly fitted or top-dose-only effect; inactive = flat fitted curve, though single readings scatter. This is a selection; strong and weak results do not stand in their true shares. Some compounds were tested as several samples or in several runs, with calls that do not always agree. Bridge positions count the residues as written; N and C are the ends. Square brackets hold non-standard residues; d marks the D form. Peptide text beside a SMILES is read from it. * marks the point of attachment. Octanoyl(6-Me) = CCC(C)CCCCC(=O)*; Dab = NCC[CH](N)C(=O)O
Molecular target: RecQ-like DNA helicase BLM (Homo sapiens) (UniProt P54132)
Assay: qHTS Assay for Inhibitors of Bloom's syndrome helicase (BLM); also: nearly all actives have a fitted effect of over 35% in size;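 as to activity change, negative = inhibition: plate controls were vehicle for no effect and no enzyme for full effect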
Details: recombinant BLM DNA unwinding, fluorescence dequenching; series mostly up to 56.1 µM; activity change, negative = inhibition: at the top concentration
Potency is read from the fitted curve at half-maximal effect.

UniProt P54132, sequence (P54132 whole entry, looked up): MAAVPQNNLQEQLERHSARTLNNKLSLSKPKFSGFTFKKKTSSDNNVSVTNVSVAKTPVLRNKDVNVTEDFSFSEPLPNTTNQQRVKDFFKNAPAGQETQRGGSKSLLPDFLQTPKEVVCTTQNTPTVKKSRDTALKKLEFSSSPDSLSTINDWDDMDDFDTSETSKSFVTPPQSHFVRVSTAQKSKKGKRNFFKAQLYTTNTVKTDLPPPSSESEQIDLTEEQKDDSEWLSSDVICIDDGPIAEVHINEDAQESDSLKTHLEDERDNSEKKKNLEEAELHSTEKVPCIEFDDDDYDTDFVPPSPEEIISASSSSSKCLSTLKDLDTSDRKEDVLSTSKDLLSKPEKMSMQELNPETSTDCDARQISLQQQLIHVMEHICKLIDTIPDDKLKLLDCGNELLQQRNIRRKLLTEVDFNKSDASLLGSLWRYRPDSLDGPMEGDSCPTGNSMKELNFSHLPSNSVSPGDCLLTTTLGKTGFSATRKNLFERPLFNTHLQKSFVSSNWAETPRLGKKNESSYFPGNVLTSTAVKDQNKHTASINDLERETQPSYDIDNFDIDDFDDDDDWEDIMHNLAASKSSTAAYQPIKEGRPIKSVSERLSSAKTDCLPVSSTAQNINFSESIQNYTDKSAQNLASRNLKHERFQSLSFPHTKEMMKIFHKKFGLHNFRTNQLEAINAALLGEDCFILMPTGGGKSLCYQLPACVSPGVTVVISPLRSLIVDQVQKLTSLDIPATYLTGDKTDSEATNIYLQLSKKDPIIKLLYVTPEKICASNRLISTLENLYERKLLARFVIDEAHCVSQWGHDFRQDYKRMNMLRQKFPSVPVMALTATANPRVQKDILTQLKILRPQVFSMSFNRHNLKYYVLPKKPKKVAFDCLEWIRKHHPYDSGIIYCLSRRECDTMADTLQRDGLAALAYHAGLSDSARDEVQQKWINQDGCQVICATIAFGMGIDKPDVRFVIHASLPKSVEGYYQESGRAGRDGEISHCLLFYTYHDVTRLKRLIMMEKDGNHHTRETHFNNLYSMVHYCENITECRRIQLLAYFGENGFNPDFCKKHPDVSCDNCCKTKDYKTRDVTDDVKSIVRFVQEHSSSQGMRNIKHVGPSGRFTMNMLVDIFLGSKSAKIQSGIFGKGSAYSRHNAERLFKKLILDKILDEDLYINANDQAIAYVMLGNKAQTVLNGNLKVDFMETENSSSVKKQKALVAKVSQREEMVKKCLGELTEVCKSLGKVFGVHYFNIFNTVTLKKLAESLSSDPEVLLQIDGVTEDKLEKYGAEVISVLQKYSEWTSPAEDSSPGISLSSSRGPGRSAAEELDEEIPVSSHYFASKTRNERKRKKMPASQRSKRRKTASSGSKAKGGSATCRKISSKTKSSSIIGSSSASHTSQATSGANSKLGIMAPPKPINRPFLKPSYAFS

Activity change, negative = inhibition, inactive:
CC1=C/C(=C(/c2cc(C)c(O)c(Br)c2)c2ccccc2S(=O)(=O)O)C=C(Br)C1=O -28%, O=C(O)[C@@H]1C[C@H](C(=O)O)N1 3.37%, O[C@H](CN1CCN(c2cccc(Cl)c2)CC1)C(c1ccccc1)c1ccccc1 -12.4%, CCCC[C@H](CC)CN=C(N)NC(N)=NCCCCCCN=C(N)NC(N)=NC[C@@H](CC)CCCC 55.1% [at 21.4 µM], COc1ccc(C(CC(=O)N2CCCC2)c2c(OC)cc(OC)c3c(-c4ccccc4)cc(=O)oc23)cc1 (stereo unspecified) -29.3%, COC(=O)C1=C(C)NC(C)=C([N+](=O)[O-])[C@H]1c1ccccc1C(F)(F)F -6.18%, COc1ccc(N=C2NC(=O)/C(=C/c3ccco3)S2)cc1 -19.1%, Nc1cc(=O)[nH]c(N)n1 2.16%, N[C@@H](Cc1c[nH]c2ccccc12)C(=O)O -1.08%, CCn1c(=O)[nH]c2cc(Cl)c(Cl)cc21 -2.14%, CCCCCCCCCC(=O)N[C@H](CN1CCOCC1)[C@H](O)c1ccccc1 -5.41%, CCCN(CCC)CCc1cccc2c1CC(=O)N2 -6.12%, NC1CONC1=O (stereo unspecified) -10.1%, Cc1[nH]c(=O)c(C#N)cc1-c1ccc2nccn2c1 -7.83%, C#C[C@]1(O)CC[C@@H]2[C@H]3CCC4=Cc5oncc5C[C@]4(C)[C@@H]3CC[C@@]21C 1.43% [at 21.4 µM], NC(Cc1cc(I)c(Oc2ccc(O)c(I)c2)c(I)c1)C(=O)O (stereo unspecified) 3.23%, Oc1ccc(-c2nc(-c3ccc(F)cc3)c(-c3ccncc3)[nH]2)cc1 -5.63%, O=C1c2c(O)cc(O)cc2O[C@H](c2ccc(O)c(O)c2)[C@@H]1O -8.43%, CCOC(=O)c1cnc2c(cnn2CC)c1NN=C(C)C -1.32%, N[C@H](CCC(=O)N[C@H](CSN=O)C(=O)NCC(=O)O)C(=O)O 1.3%, O=C(O)c1cc2cc(Cc3cccnc3)ccc2o1 3.89%, NC(=O)CC[C@H](N)C(=O)O 0.641%, COc1c(O)cc2oc(-c3ccc(O)c(O)c3)cc(=O)c2c1O -27.6%, CCNC(=O)[C@H]1O[C@H](n2cnc3c(N)nc(NCCc4ccc(CCC(=O)O)cc4)nc32)[C@@H](O)[C@@H]1O -2.49%, CCCN1CC(CSC)C[C@H]2c3cccc4[nH]cc(c34)C[C@H]21 (stereo partly specified) -6.38%, CC#CCOC(=O)c1c(C)nc2sc3c(c2c1N)CC[C@@H](O)C3 -4.83%, Oc1cc2c(cc1O)[C@@H](c1ccccc1)CNCC2 -7.55%, CC[C@]1(O)CC2CN(CCc3c([nH]c4ccccc34)[C@@](C(=O)OC)(c3cc4c(cc3OC)N(C)[C@H]3[C@@](O)(C(=O)OC)[C@H](OC(C)=O)[C@]5(CC)C=CCN6CC[C@]43[C@@H]65)C2)C1 (stereo partly specified) -1.86%, COC(=O)C1C(O)CC[C@H]2CN3CCc4c([nH]c5ccccc45)C3C[C@H]12 (stereo partly specified) -1.27%, NCCCCC(=O)O 2.46%, Cc1ccccc1[C@@H](OCCN(C)C)c1ccccc1 2.25% [at 21.4 µM], N#C/C(=C\c1ccc(O)c(O)c1)C(=O)Nc1ccccc1 -18.8%, Oc1ccc(C2CNCCc3c2cc(O)c(O)c3Cl)cc1 (stereo unspecified) -21.3%, C[C@](N)(Cc1ccc(O)cc1)C(=O)O 1.21%, CCNC(=O)[C@H]1O[C@@H](n2cnc3c(N)nc(NCCc4ccc(CCC(=O)O)cc4)nc32)[C@H](O)[C@@H]1O 0.126%, CCCCCCCCCCCCCCCC(=O)O[C@H](CC(=O)O)C[N+](C)(C)C -11.3%, C[C@@]12C[C@@H](O)[C@H]3[C@@H](CCC4=CC(=O)CC[C@]43C)[C@H]1CC[C@H]2C(=O)CO 0.922% [at 21.4 µM], N[C@@H](CC(=O)O)C(=O)O -4.67%, Oc1ccc(NCc2ccc(OCc3ccccc3)cc2)cc1 -10%, CC(C)(C=O)Cc1cc(C(C)(C)C)c(O)c(C(C)(C)C)c1 -9.01%, Cc1ccccc1N1CCN(S(=O)(=O)CC23CCC(CC2NC(=O)C(N)CCS(C)(=O)=O)C3(C)C)CC1 (stereo unspecified) -4.36%, CCOC(=O)C1=C(C)NC(C)=C(C(=O)OC)[C@H]1c1cccc([N+](=O)[O-])c1 -9.9%

Potency, inactive:
Cc1cn([C@H]2C=C[C@@H](CO)O2)c(=O)[nH]c1=O, COC(=O)C1C(O)CC[C@@H]2CN3CCc4c([nH]c5ccccc45)C3C[C@@H]12 (stereo partly specified), O=C(/C=C/c1ccc(O)cc1)c1ccc(O)cc1O, CC(=O)O[C@H]1C(=O)[C@@]2(C)[C@H]([C@H](OC(=O)c3ccccc3)[C@]3(O)C[C@H](OC(=O)[C@H](O)[C@@H](NC(=O)c4ccccc4)c4ccccc4)C(C)=C1C3(C)C)[C@]1(OC(C)=O)CO[C@@H]1C[C@@H]2O, CC1(C)S[C@@H]2[C@H](NC(=O)[C@H](N)c3ccccc3)C(=O)N2[C@H]1C(=O)O, COc1cc2ncnc(Nc3cccc(Cl)c3)c2cc1OC, C1CCc2nnnn2CC1, O=C(O)c1cc(=O)c2c(Cl)cc(Cl)cc2[nH]1, CC(C)OC(=O)C(C)(C)Oc1ccc(C(=O)c2ccc(Cl)cc2)cc1, N[C@H](CC(=O)O)C(=O)O, CCOC(=O)N1CCC(=C2c3ccc(Cl)cc3CCc3cccnc32)CC1, COCCCC/C(=N\OCCN)c1ccc(C(F)(F)F)cc1, Cc1ccc(N(CC2=NCCN2)c2cccc(O)c2)cc1, COC(=O)[C@H]1[C@H]2CC3c4[nH]c5ccccc5c4CCN3C[C@@H]2CC[C@@H]1O (stereo partly specified), CC(C)NC[C@H](O)c1ccc(NS(C)(=O)=O)cc1, O=C1NC(=O)C(c2ccccc2[N+](=O)[O-])=C1Nc1ccc(O)c(Cl)c1, c1ccc2c(c1)CCCC2C1=NCCN1 (stereo unspecified), O=C(/C=C/c1ccc(O)c(O)c1)OC(Cc1ccc(O)c(O)c1)C(=O)O (stereo unspecified), NNCCc1ccccc1, Oc1ccc(/C=C\c2cc(O)cc(O)c2)cc1, C=CC(N)CCC(=O)O (stereo unspecified), Oc1cc(O)c2c(c1)O[C@H](c1ccc(O)c(O)c1)[C@@H](O)C2

Potency, inactive and 11.2 µM (active):
Cc1cc(-c2ccc(N=Nc3ccc4c(S(=O)(=O)O)cc(S(=O)(=O)O)c(N)c4c3O)c(C)c2)ccc1N=Nc1ccc2c(S(=O)(=O)O)cc(S(=O)(=O)O)c(N)c2c1O

Potency, active:
C=CCn1c(SCC(=O)N2CCOCC2)nc2scc(-c3ccco3)c2c1=O 17.8 µM, COc1cccc2c1C(=O)c1c(O)c3c(c(O)c1C2=O)C[C@@](O)(C(C)=O)C[C@@H]3O[C@H]1C[C@H](N)[C@H](O)[C@H](C)O1 14.1 µM and 28.2 µM, O=C(/C=C/c1ccccc1Cl)Nc1ccc2c(c1)C(=O)NC2=O 31.6 µM, NC(=O)c1ccc(N=C2C(=O)Nc3ccc([N+](=O)[O-])cc32)cc1 31.6 µM, Cc1cc(C)c(S(=O)(=O)/N=C2/C=C(SCC(=O)O)C(=O)c3ccccc32)cc1C 31.6 µM, Cc1cccc(N2CSC3=C(C#N)C(c4ccc(C)o4)CC(=O)N3C2)c1 (stereo unspecified) 14.1 µM, CSc1nc(NCCOCCO)c2sc3nc(-c4ccco4)c4c(c3c2n1)CCC4 25.1 µM, N#Cc1c(N2CCCC2)nc(N)c2c(N)nc(N3CCCC3)cc12 2.82 µM, CS(=O)(=O)N1CCN(c2ccc([N+](=O)[O-])c(NCc3ccc(Cl)cc3)c2)CC1 15.8 µM, O=c1cc(-c2ccc(O)cc2)oc2c(O)c(O)c(O)c(O)c12 10 µM, CCc1nnc(NC(=O)CSc2sc3c(O)cc(=O)[nH]c3c2C#N)s1 17.8 µM, O=C(CSc1nc2ccccc2n1CCc1ccccc1)c1ccc(O)c(O)c1 11.2 µM, O=C(O)C(Cc1ccccc1)N1C(=O)/C(=C/C=C/c2ccco2)SC1=S (stereo unspecified) 22.4 µM, CC(=O)[C@]1(O)Cc2c(O)c3c(c(O)c2[C@@H](O[C@H]2C[C@H](N)[C@H](O)[C@H](C)O2)C1)C(=O)c1c(O)cccc1C3=O 28.2 µM, N#C/C(=C\c1ccc(OC(=O)c2cccs2)cc1)c1nc2ccccc2[nH]1 20 µM, COc1cccc2c1C(=O)c1c(O)c3c(c(O)c1C2=O)C[C@@](O)(C(=O)CO)C[C@@H]3OC1C[C@@H](N)[C@H](O)[C@H](C)O1 (stereo partly specified) 28.2 µM, C[C@@]1(C(=O)O)NCCc2cc(O)c(O)cc21 8.91 µM, CC(C)NC(=O)CC(=O)N/N=C/c1cccs1 17.8 µM, O=C(c1ccc(-n2cccn2)cc1)N1CCc2c([nH]c3ccccc23)C1c1ccccn1 (stereo unspecified) 12.6 µM, Oc1ccc(NCc2cccc(OCc3ccc(F)cc3)c2)cc1 14.1 µM, N=C1CCC(=N)c2c1c(O)c1ccccc1c2O 31.6 µM, CC(C)CN(C(=O)COC(=O)c1cc2c(s1)CCC2)C1CCS(=O)(=O)C1 (stereo unspecified) 25.1 µM, O=C(O)c1cc(O)c2c(c1)[C@H]([C@H]1c3cc(C(=O)O)cc(O)c3C(=O)c3c(O[C@@H]4OC(CO)C(O)C(O)C4O)cccc31)c1cccc(O[C@@H]3OC(CO)C(O)C(O)C3O)c1C2=O (stereo partly specified) 3.16 µM, C=CCn1c(NC(=O)c2ccccc2Cl)c(C#N)c2nc3ccccc3nc21 1 µM, CCOc1ccc(NC(=S)Nc2ccc3nsnc3c2)cc1 3.98 µM, CCC(C)CCCCC(=O)NC(CCN)C(=O)NC(C(=O)NC(CCN)C(=O)NC1CCNC(=O)C(C(C)O)NC(=O)C(CCN)NC(=O)C(CCN)NC(=O)C(CC(C)C)NC(=O)C(Cc2ccccc2)NC(=O)C(CCN)NC1=O)C(C)O (stereo unspecified) ({Octanoyl(6-Me)}-[Dab]T[Dab][Dab][Dab]FL[Dab][Dab]T; lactam 4-C; configuration not given here) 7.94 µM

Source: PubChem BioAssay AID2528 (National Center for Advancing Translational Sciences (NCATS), 2010)
